Experimental data from US20180201654A1, “PEPTIDE INHIBITORS OF HAUSP DEUBIQUITINASE” (priority 2012, published 2018).
Where no end group is shown, it is not given here.

Target: full length HAUSP (Homo sapiens, UniProt Q93009)
Conditions: GST-vIRF4 constructs single transfected, GST-pulldown

vIRF4^237-256: GST-vIRF4 construct of aa 237-256 transfected into cells ({GST}-DPPAPSTLTGPSDPHSSGAG; UniProt Q2HR73 237-256, looked up, fragment)
interaction with full length HAUSP in vivo: little or no HAUSP binding
